Screen size: about 220,000 compounds; about 5,700 (2.6%) were called active. Inconclusive results, whose numbers are uncertain, are shown with a selection of clear calls. Calls follow the shape of the dose curve; as a rule, active = well fitted inhibition curve with a large enough effect; inconclusive = small, poorly fitted or top-dose-only effect; inactive = no such curve, though single readings can be large or run the other way. Potencies beside an inconclusive call are fits to weak or partial responses and may not hold up.
Each compound was assayed against Lysine-specific demethylase 5B (Homo sapiens) (UniProt Q9UGL1) (assay: Primary screen for KDM5B Histone Demethylases FDH-coupled qHTS). Details: FDH-coupled NADH fluorescence (FDH is formaldehyde dehydrogenase); activity change, negative = inhibition: at 57.7 µM (top of the series) unless noted.
Sequence of UniProt Q9UGL1 (Q9UGL1 whole entry, looked up): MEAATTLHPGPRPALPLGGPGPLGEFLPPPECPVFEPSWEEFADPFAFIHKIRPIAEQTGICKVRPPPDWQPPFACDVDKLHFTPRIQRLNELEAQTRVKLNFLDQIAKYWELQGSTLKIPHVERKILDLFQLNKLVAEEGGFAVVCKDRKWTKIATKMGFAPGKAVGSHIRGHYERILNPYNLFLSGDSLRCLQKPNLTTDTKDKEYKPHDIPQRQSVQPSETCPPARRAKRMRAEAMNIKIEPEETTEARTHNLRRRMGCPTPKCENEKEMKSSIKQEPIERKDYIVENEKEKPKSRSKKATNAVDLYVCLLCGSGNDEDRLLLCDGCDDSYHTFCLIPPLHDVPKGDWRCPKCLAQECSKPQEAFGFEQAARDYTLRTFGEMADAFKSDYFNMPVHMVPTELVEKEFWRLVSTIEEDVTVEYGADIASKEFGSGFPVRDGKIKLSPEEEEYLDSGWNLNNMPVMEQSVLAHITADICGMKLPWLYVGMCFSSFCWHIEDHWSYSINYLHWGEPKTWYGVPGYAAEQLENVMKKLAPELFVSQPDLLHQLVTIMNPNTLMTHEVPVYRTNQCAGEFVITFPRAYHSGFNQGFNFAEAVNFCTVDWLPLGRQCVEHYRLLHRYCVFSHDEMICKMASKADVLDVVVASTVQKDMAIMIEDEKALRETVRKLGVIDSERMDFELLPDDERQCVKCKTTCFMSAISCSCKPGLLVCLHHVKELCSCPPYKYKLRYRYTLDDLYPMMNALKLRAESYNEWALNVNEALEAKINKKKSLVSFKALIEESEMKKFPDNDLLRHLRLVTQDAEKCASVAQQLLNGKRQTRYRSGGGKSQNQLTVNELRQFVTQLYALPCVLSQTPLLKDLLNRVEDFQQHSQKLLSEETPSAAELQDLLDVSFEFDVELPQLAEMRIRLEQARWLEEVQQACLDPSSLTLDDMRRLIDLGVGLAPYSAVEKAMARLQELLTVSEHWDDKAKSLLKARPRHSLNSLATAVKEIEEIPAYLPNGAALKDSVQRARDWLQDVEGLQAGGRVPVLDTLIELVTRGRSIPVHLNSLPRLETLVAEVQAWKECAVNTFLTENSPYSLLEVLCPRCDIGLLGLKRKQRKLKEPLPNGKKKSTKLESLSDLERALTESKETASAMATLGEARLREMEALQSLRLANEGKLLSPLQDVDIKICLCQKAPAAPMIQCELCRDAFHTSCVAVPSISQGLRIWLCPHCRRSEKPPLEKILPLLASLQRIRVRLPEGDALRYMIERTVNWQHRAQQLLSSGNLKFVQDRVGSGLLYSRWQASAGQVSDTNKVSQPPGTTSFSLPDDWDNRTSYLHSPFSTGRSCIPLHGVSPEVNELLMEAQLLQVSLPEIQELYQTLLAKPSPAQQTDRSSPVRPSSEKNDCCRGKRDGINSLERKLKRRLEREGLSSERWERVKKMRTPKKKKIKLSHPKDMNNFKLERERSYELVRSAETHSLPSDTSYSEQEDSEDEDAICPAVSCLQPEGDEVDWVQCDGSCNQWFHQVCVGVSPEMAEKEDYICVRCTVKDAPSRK
Procedure, shortened: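 Coupled FDH/NAD⁺ fluorescence readout. KDM5BΔAP 200 nM final; compound titration, 10 min RT preincubation; substrate mix 12.5 µM H3K4me3, 25 µM 2-OG, 50 µM Fe(II), 100 µM ascorbate, 0.25 mM NAD⁺, 0.25 U/mL FDH; ΔRFU over 30 min.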
Also: nearly all actives have a fitted effect of over 70% in size.
For activity change, negative = inhibition in this document: 0% is about no effect.
Potency is read from the fitted curve at half-maximal effect; tags tell the direction and shape of the fitted curve.

Question: `CCN1CC(C(=O)NCc2ccc(-c3ccc(F)cc3)o2)CCC1=O` (configuration not stated) was tested. Which Potency did it give?
Answer: Its Potency is inconclusive: 28.2 µM [inhibitor, partial curve, poor fit].

Question: How did the Potency turn out when `Cc1ccc(-c2noc(COc3ccc(Br)c(C)c3)n2)cc1` was run?
Answer: The Potency was inconclusive: 7.94 µM [inhibitor, partial curve, poor fit].

Question: Which Potency does the source give for `O=C(O)[C@H](Cn1ccc(=O)[nH]c1=O)NCc1ncc[nH]1` here?
Answer: The Potency was inconclusive: 31.6 µM [inhibitor, partial curve].

Question: Which Potency does the source give for `Cc1ccc(NC(=O)Nc2ccc(C)n(CC(=O)NCC(C)C)c2=O)cc1` here?
Answer: Its Potency is inconclusive: 28.2 µM [inhibitor, single point].

Question: `Clc1cccc(CNc2ncnc3c2nc2n3CCCC2)c1` was tested. Which Potency did it give?
Answer: Its Potency is inconclusive: 31.6 µM [inhibitor, partial curve, poor fit].

Question: For `COc1ccc(-n2ncc3c(N4CCN(c5cccc(C)c5)C(C)C4)ncnc32)cc1` (configuration not stated), which Potency is on record?
Answer: The Potency was inconclusive: 25.1 µM [inhibitor, partial curve, poor fit].

Question: `NC(Cc1c[nH]c2ccccc12)C(=O)O` (configuration not stated) was tested. Which Potency did it give?
Answer: Its Potency is inconclusive: 28.2 µM [inhibitor, partial curve, poor fit].

Question: `CC1CCCCN1Cc1oc(CO)cc(=O)c1O` (configuration not stated) was tested. Which Potency did it give?
Answer: Its Potency is inconclusive: 28.2 µM [inhibitor, partial curve, poor fit].

Question: Which Potency does the source give for `COC(=O)[C@@H]1Cc2c([nH]c3ccccc23)[C@H]2C[C@@H](NCc3cccs3)C[C@@H](c3ccccc3F)N21` here?
Answer: Its Potency is inconclusive: 1.78 µM [inhibitor, partial curve, poor fit].

Question: `CCCCn1c(=O)[nH]c(=O)c2c1nc(-c1ccccn1)n2CC` was tested. Which Potency did it give?
Answer: The Potency was inconclusive: 5.62 µM [inhibitor, full curve, poor fit].

Question: For `CN(C)C[C@@H]1CN(c2ccncn2)C[C@H]1NC(=O)Cc1cccs1`, which “activity change, negative = inhibition” value is on record?
Answer: The value was inactive: -20.8%.

Question: Which “activity change, negative = inhibition” value does the source give for `COc1ccc(Nc2nc3ccccc3nc2NS(=O)(=O)c2cccs2)cc1Cl` here?
Answer: Its value is inactive: 24.9%.

Question: With `Cc1noc(-c2ccc(C(C)(C)C)cc2)c1C(=O)NCCOc1ccccc1` as the compound, how does the “activity change, negative = inhibition” value read?
Answer: Its value is inactive: 5.68%.

Question: `c1ccc(-c2nc(N3CCCCCC3)c3ccccc3n2)nc1` was tested. Which Potency did it give?
Answer: The Potency was inconclusive: 39.8 µM [inhibitor, single point].

Question: With `O=C1CC(c2nc3ccccc3n2CCCCOc2ccccc2)CN1c1ccccc1Cl` (configuration not stated) as the compound, how does the Potency read?
Answer: Its Potency is inconclusive: 35.5 µM [inhibitor, partial curve, poor fit].

Question: `COc1ccc(-c2c(C)oc3cc(OCCN4CCN(C)CC4)ccc3c2=O)cc1` was tested. Which “activity change, negative = inhibition” value did it give?
Answer: Its value is inactive: -0.485%.

Question: How did the “activity change, negative = inhibition” value turn out when `CC(Cn1cncn1)NC(=O)c1ccc(S(=O)(=O)NCCO)cc1` (configuration not stated) was run?
Answer: The value was inactive: -2.42%.

Question: How did the Potency turn out when `CCOc1ccc(CC(=O)Nc2ccc3nc(N4CCCCC4)cc(C)c3c2)cc1OCC` was run?
Answer: The Potency was inconclusive: 25.1 µM [inhibitor, partial curve, poor fit].

Question: With `O=C(Nc1ccccc1)c1nc2c(o1)CCN(Cc1cccs1)CC2` as the compound, how does the Potency read?
Answer: Its Potency is inconclusive: 35.5 µM [inhibitor, single point].

Question: With `Fc1ccc(-c2nc(COc3ccccc3Br)co2)cc1` as the compound, how does the “activity change, negative = inhibition” value read?
Answer: The value was inactive: 1.13%.

Question: With `O=C(NC1CCN(c2cc(-c3ccc(Cl)cc3)[nH]n2)C1)c1ccccc1` (configuration not stated) as the compound, how does the Potency read?
Answer: Its Potency is inconclusive: 3.98 µM [inhibitor, full curve].

Question: For `COc1ccc(N2Cc3c(ncnc3N3CCCN(C(C)=O)CC3)N(C)CC2=O)cc1`, which “activity change, negative = inhibition” value is on record?
Answer: Its value is inactive: -8.11%.

Question: With `COc1cc(NC(=O)C2c3ccccc3Oc3ccccc32)c(OC)cc1Cl` as the compound, how does the “activity change, negative = inhibition” value read?
Answer: Its value is inactive: 9.03%.

Question: Which Potency does the source give for `CC(C)C(NS(=O)(=O)c1cccs1)C(=O)N1CCC(C(N)=O)CC1` (configuration not stated) here?
Answer: The Potency was inconclusive: 11.2 µM [inhibitor, partial curve, poor fit].

Question: With `O=C(/C=C/c1ccco1)OC(C(=O)c1ccccc1)C(=O)c1ccccc1` as the compound, how does the Potency read?
Answer: The Potency was inconclusive: 35.5 µM [inhibitor, single point].

Question: `COc1ccc(CC(=O)Nc2nc3c(s2)CC(C(C)(C)C)CC3)cc1` (configuration not stated) was tested. Which Potency did it give?
Answer: Its Potency is inconclusive: 6.31 µM [inhibitor, partial curve, poor fit].

Question: Which Potency does the source give for `O=c1n(-c2ccc(F)cc2F)nc2n1CCN(Cc1ccc(F)cc1)C2` here?
Answer: Its Potency is inconclusive: 28.2 µM [inhibitor, partial curve].

Question: For `CC(C)N1C[C@H](O)C[C@H]1c1nc(-c2ccc(C(F)(F)F)cc2)no1`, which Potency is on record?
Answer: The Potency was inconclusive: 35.5 µM [inhibitor, partial curve].

Question: Which Potency does the source give for `Cc1cccc(-c2ccc(C(=O)NCCCn3ccnc3C(C)C)cn2)c1C` here?
Answer: Its Potency is inconclusive: 25.1 µM [inhibitor, partial curve, poor fit].

Question: How did the Potency turn out when `COCCCNC(=O)C1(C)CN(Cc2ccccc2)Cc2ccc(Nc3ccccc3)nc21` (configuration not stated) was run?
Answer: Its Potency is inconclusive: 31.6 µM [inhibitor, partial curve, poor fit].

Question: For `O=C(CN1C(=O)S/C(=C\c2ccc(F)cc2)C1=O)Nc1ccc2oc(=O)ccc2c1`, which “activity change, negative = inhibition” value is on record?
Answer: Its value is inactive: 8.13%.

Question: For `COc1ccccc1-c1cc(C(=O)N2CCCC2)nc2c1cnn2C`, which Potency is on record?
Answer: The Potency was active: 79.4 µM.

Question: How did the “activity change, negative = inhibition” value turn out when `COc1ccc(NC(=O)CCSc2nnc3scc(-c4ccc(Cl)cc4)n23)cc1` was run?
Answer: Its value is inactive: -16.3%.

Question: How did the Potency turn out when `O=Cc1ccc(OCc2ccc(Br)cc2)cc1` was run?
Answer: The Potency was inconclusive: 22.4 µM [inhibitor, partial curve, poor fit].

Question: Which “activity change, negative = inhibition” value does the source give for `Cc1cc(Cl)ccc1OCC(=O)NCc1cccc(NC(=O)C2CC2)c1` here?
Answer: The value was inactive: -6.94%.

Question: `CC1=C(C(=O)NC(C)(C)C)C(c2ccc(Cl)cc2)N2C(CC(=O)N3CCCC3)=CSC2=N1` (configuration not stated) was tested. Which Potency did it give?
Answer: Its Potency is inconclusive: 14.1 µM [inhibitor, partial curve, poor fit].

Question: How did the activity change, negative = inhibition turn out when `Cc1nc2c(C(=O)NCCc3ccc(Cl)cc3)cnn2c(C)c1Cc1c(F)cccc1Cl` was run?
Answer: Its activity change, negative = inhibition is inconclusive: -36.6% [inhibitor].

Question: For `Cc1nc2nc(N)nn2c(C)c1CC(=O)NC(C)C`, which Potency is on record?
Answer: The Potency was inconclusive: 25.1 µM [inhibitor, partial curve, poor fit].

Question: For `COc1cccc(N2CCN(C(=O)Cc3ccc(N4CCCC4=O)cc3)CC2)c1`, which “activity change, negative = inhibition” value is on record?
Answer: Its value is inactive: 7.52%.

Question: For `CS(=O)(=O)N1CCCN(Cc2ccc(C#N)cc2)CCNC(=O)CC1c1ccccc1` (configuration not stated), which Potency is on record?
Answer: Its Potency is inconclusive: 28.2 µM [inhibitor, single point].

Question: How did the Potency turn out when `COCc1cc(=O)n(CC(=O)Nc2cc(F)ccc2F)c(N2CCOCC2)n1` was run?
Answer: The Potency was inconclusive: 14.1 µM [inhibitor, partial curve, poor fit].

Question: Which “activity change, negative = inhibition” value does the source give for `COc1ccc2oc(=O)cc(CN3CCN(c4ccc(F)cc4)CC3)c2c1` here?
Answer: Its value is inactive: -32.9%.

Question: How did the Potency turn out when `Cc1cccc(C(=O)Nc2ccc(-c3nc4ccccc4s3)cc2Cl)c1` was run?
Answer: The Potency was inconclusive: 31.6 µM [inhibitor, partial curve, poor fit].

Question: How did the Potency turn out when `CCCCOC(=O)c1ccc(Nc2ncnc3[nH]ncc23)cc1` was run?
Answer: Its Potency is inconclusive: 31.6 µM [inhibitor, partial curve, poor fit].

Question: How did the “activity change, negative = inhibition” value turn out when `CC(C)C(=O)Nc1ccc(C2(C(=O)N3CCCCC3)CCCCC2)cc1` was run?
Answer: Its value is inactive: 3.43%.

Question: `CCOc1cc(-c2ccc(C)cc2)nc2ccc(C(=O)NCCCN(CC)CC)cc12` was tested. Which Potency did it give?
Answer: Its Potency is inconclusive: 28.2 µM [inhibitor, partial curve, poor fit].

Question: With `O=C(Nc1cc(F)ccc1F)C1CCN(c2nc3ccccc3n3cccc23)CC1` as the compound, how does the Potency read?
Answer: The Potency was inconclusive: 28.2 µM [inhibitor, partial curve, poor fit].

Question: Which Potency does the source give for `C=CC[C@H]1c2ccccc2[C@H]2N3N=Cc4ccccc4[C@H]3[C@H](CCc3ccccc3)C(=O)N2N1C(=O)c1ccccc1` here?
Answer: The Potency was inconclusive: 17.8 µM [inhibitor, partial curve, poor fit].

Question: For `CCCCN(CCCC)C(=O)CN(C)S(=O)(=O)c1ccc2c(c1)c(=O)n(C)c(=O)n2C`, which activity change, negative = inhibition is on record?
Answer: Its activity change, negative = inhibition is inconclusive: -31.7% [inhibitor].

Question: Which “activity change, negative = inhibition” value does the source give for `C=C(Cl)CN1CCC(C(=O)NCCc2ccccc2F)CC1` here?
Answer: Its value is inactive: 10.7%.

Question: Which Potency does the source give for `COc1ccc(N)cc1OCCO` here?
Answer: The Potency was inconclusive: 25.1 µM [inhibitor, single point].

Question: With `COc1cccc(CN(C)Cc2cccn2C)c1` as the compound, how does the “activity change, negative = inhibition” value read?
Answer: The value was inactive: -13.4% [at 86.2 µM].

Question: With `COc1ccc2c(C(F)(F)F)cc(=S)[nH]c2c1` as the compound, how does the Potency read?
Answer: The Potency was inconclusive: 39.8 µM [inhibitor, single point].

Question: For `COc1ccc(CNC(=O)c2cc3cc(C)ccc3n2C)cc1`, which Potency is on record?
Answer: The Potency was inconclusive: 35.5 µM [inhibitor, partial curve, poor fit].

Question: `COc1ccc2cc(CN3CCC(OC)CC3)c(-c3cccc(C)c3)nc2c1` was tested. Which Potency did it give?
Answer: The Potency was active: 25.1 µM.

Question: With `C=CCn1c(SC)nc2c1c(=O)[nH]c(=O)n2C` as the compound, how does the “activity change, negative = inhibition” value read?
Answer: The value was inactive: -13.1%.

Question: Which “activity change, negative = inhibition” value does the source give for `CN1CCN(C(=O)c2cccs2)CC12CCNC(=O)CC2` (configuration not stated) here?
Answer: The value was inactive: -5.54%.

Question: How did the Potency turn out when `COc1ccc(-c2cc(C(=O)OCC(=O)c3ccc(C)cc3)c3cccc(Cl)c3n2)cc1` was run?
Answer: Its Potency is inconclusive: 8.91 µM [inhibitor, partial curve, poor fit].

Question: For `Cn1c(=O)[nH]c(=O)c2c1nc(Sc1ccccc1)n2Cc1ccccc1`, which “activity change, negative = inhibition” value is on record?
Answer: Its value is inactive: 23.6%.

Question: For `CN(Cc1ccoc1)C(=O)Cn1ccc2ncccc2c1=O`, which Potency is on record?
Answer: The Potency was inconclusive: 22.4 µM [inhibitor, partial curve, poor fit].

Question: How did the Potency turn out when `COc1ccc(-c2cc3nc(C)c(CCC(=O)N4CCN(c5cccc(Cl)c5)CC4)c(C)n3n2)c(OC)c1` was run?
Answer: Its Potency is inconclusive: 17.8 µM [inhibitor, partial curve, poor fit].

Question: For `O=C(C1CCCC1)N1CCCN(c2nc3ncccc3o2)CC1`, which Potency is on record?
Answer: Its Potency is active: 28.2 µM.

Question: With `COC(=O)c1c(NC(=O)c2cc3nc(-c4ccc(OC)cc4)cc(C(F)(F)F)n3n2)sc2c1CCCC2` as the compound, how does the Potency read?
Answer: The Potency was inconclusive: 14.1 µM [inhibitor, partial curve, poor fit].

Question: Which Potency does the source give for `Cc1ccc(NC2=CC(c3ccccc3F)N(c3ccc(C)cc3)C2=O)cc1` (configuration not stated) here?
Answer: Its Potency is inconclusive: 15.8 µM [inhibitor, partial curve, poor fit].

Question: How did the Potency turn out when `CCc1c(C)sc(NC(=O)c2cccc(F)c2)c1C#N` was run?
Answer: The Potency was inconclusive: 1.78 µM [inhibitor, full curve, poor fit].

Question: With `COc1ccc(-c2cnc3n[nH]c(-c4ccc5c(c4)OCO5)c3n2)cc1` as the compound, how does the “activity change, negative = inhibition” value read?
Answer: The value was inactive: -12.4% [at 86.2 µM].

Question: Which “activity change, negative = inhibition” value does the source give for `CCCn1c(SCC(=O)Nc2nncs2)nnc1C1CC1` here?
Answer: The value was inactive: 17.5%.
